Data published in PubChem BioAssay AID1963320 (National Center for Advancing Translational Sciences (NCATS), 2024).
The whole screen tested about 1,300 compounds, of which about 560 (43%) were called active. The set was probably picked from earlier hits. The shares of active, inactive and inconclusive entries below differ from those in the screen. Calls follow the shape of the dose curve; as a rule, active = well fitted inhibition curve with a large enough effect; inconclusive = small, poorly fitted or top-dose-only effect; inactive = flat fitted curve, though single readings scatter. Potencies of inconclusive entries are doubtful fits and often do not repeat.

target: Luciferin 4-monooxygenase (Photinus pyralis) (UniProt P08659); experiment: Firefly luciferase (FLuc-C-HiBiT) enzymatic inhibition screen - Functional assay; conditions: purified FLuc-C-HiBiT enzyme, luciferin luminescence; series mostly up to 32.7 µM; activity change, negative = inhibition: at the top concentration
In short: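 10 nM FLuc-C-HiBiT + 10 uM ATP; cpds pin-transferred, >30 min RT, dark; D-luciferin 10 uM (KM); 5-10 min RT; CCD luminescence, 10 s exposure.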
% is scaled to controls: 0 for no effect and ±100 for the full control effect; potency is read from the fitted curve at half-maximal effect; tags tell the direction and shape of the fitted curve.
Also: nearly all actives have a fitted effect of over 70% in size.

UniProt P08659, sequence (P08659 whole entry, looked up): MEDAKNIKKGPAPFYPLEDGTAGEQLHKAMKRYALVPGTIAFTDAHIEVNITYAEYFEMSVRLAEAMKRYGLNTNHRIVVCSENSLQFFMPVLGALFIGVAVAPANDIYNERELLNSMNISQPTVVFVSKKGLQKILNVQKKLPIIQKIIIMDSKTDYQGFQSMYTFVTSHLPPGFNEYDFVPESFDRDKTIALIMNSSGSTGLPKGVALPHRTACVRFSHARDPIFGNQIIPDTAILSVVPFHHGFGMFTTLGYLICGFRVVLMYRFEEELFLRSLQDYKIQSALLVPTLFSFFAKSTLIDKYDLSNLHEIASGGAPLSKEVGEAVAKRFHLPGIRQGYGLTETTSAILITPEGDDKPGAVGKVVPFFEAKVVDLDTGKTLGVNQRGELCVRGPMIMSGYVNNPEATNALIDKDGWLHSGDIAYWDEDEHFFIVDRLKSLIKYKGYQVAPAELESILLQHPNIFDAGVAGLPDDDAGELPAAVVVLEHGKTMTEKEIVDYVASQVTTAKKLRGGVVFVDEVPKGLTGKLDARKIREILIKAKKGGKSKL

Structure (SMILES)	Potency	activity change, negative = inhibition
CCCC(=O)Nc1cnc(-c2ccc(C)cc2)nc1	active: 3.51 µM	–
CN1c2cc(C(=O)Nc3cccc(Cl)c3)ccc2C(=O)N2CCCCCC21 (centres undefined)	inconclusive: 17.6 µM [inhibitor, partial curve, poor fit]	–
Cc1ccc(-n2ncc3c(N4CCC(Cc5ccccc5)CC4)ncnc32)cc1C	–	inactive: -1.16%
O=C(NCCC1CCN(C(=O)Nc2cc(F)cc(F)c2)CC1)c1ccc(F)cc1	–	inactive: -17.7%
Cc1ccc(NC(=O)C2CCN(c3nc(-c4ccc(C(C)C)cc4)no3)CC2)c(Cl)c1	inconclusive: 14 µM [inhibitor, partial curve]	–
CSc1ccc(-c2nc3c([nH]2)CC(C)(C)CNC3=O)cc1	inconclusive: 12.4 µM [inhibitor, partial curve]	–
COCC1CCN(c2ccc(-c3nc(-c4ccccc4C)no3)cn2)C1 (centres undefined)	inconclusive: 17.6 µM [inhibitor, single point]	–
c1ccc(CNc2nc(-c3ccccc3)no2)cc1	inconclusive: 17.6 µM [inhibitor, partial curve]	–
Cc1cn2nc(C(=O)Nc3ccc4c(c3)OCCO4)cc2c(N(C)Cc2ccccc2)n1	inconclusive: 9.89 µM [inhibitor, partial curve]	–
Cc1ccc2nc([C@H]3CCN(C(C)C)C3)[nH]c2c1	inconclusive: 25.4 µM [inhibitor, partial curve]	–
COc1cccc(NC(=O)CCc2nc(-c3ccc(C(C)(C)C)cc3)no2)c1	active: 7 µM	–
Cc1ccc(-c2noc([C@@H]3Cc4nc[nH]c4CN3C(=O)Nc3cccc(F)c3)n2)cc1	inconclusive: 20.2 µM [inhibitor, partial curve, poor fit]	–
COc1ccc(OC)c(-c2nc3ccc(OC)cc3s2)c1	inconclusive: 8.81 µM [inhibitor, partial curve]	–
Cc1ccc2cc(CN3CCN(CC(N)=O)CC3)c(-c3cccs3)nc2c1	inconclusive: 12.4 µM [inhibitor, partial curve]	–
COc1ccc(-c2noc(Nc3ccc4c(c3)OCCO4)n2)cc1	active: 1.57 µM	–
CSC(=S)Nc1ccc(-c2nc3ccc(C)cc3s2)cc1	active: 2.48 µM	–
CC(=O)Oc1ccccc1C(=O)Nc1ccc(-c2nc3ccc(C)cc3s2)cc1	inconclusive: 8.81 µM [inhibitor, partial curve]	–
Cc1ncc(CC(=O)NCc2ccc3[nH]c(-c4ccccc4F)c(C)c3c2)c(=O)[nH]1	inconclusive: 12.4 µM [inhibitor, partial curve]	–
Cc1ccc(-c2nnc(C3CN(C(=O)c4sc(C)nc4C)CC34CCOCC4)o2)cc1 (centres undefined)	–	inactive: 0.309%
CCN1C(=O)CCc2cc(NC(=O)c3ccc(OC(F)(F)F)cc3)ccc21	inconclusive: 11.1 µM [inhibitor, partial curve]	–
CN(C)c1cccc(C(=O)Nc2ccc(-c3nc4ccccc4s3)cc2)c1	inconclusive: 8.81 µM [inhibitor, partial curve]	–
Cc1ccc(-c2cccc(COc3cnc4c(ccn4CC(=O)O)c3)c2)c(C)c1	–	inactive: -12.7% [at 49.3 µM]

Structure (SMILES)	Potency	activity change, negative = inhibition
COc1cccc(-c2nc3ccc(-c4ccc5c(c4)OCO5)cc3o2)c1OC	active: 2.48 µM	–
O=C(COc1ccc(Cl)cc1)Nc1ccc(O)c(-c2nc3ccccc3s2)c1	–	inactive: 3.31%
COc1ccc2cc(C3CN(C(=O)CCc4n[nH]c(C)n4)CCO3)ccc2c1 (centres undefined)	active: 9.89 µM	–
COc1ccc(-c2nc(C)c(CCNC(=O)c3cccs3)s2)cc1	inconclusive: 11.1 µM [inhibitor, partial curve]	–
Cc1cc2nc(-c3cccc(NC(=O)COc4ccc(C(C)C)cc4)c3)oc2cc1C	inconclusive: 9.89 µM [inhibitor, partial curve]	–
COc1ccc(C(=O)NCCn2ccn3nc(-c4ccc(C)cc4C)cc3c2=O)c(C)c1	active: 4.95 µM	–
COc1ccc(/C=C/c2ccc3c(c2)C(=O)N2CC[C@H](NC(=O)CCC(=O)O)[C@H]2C(=O)N3)cc1	inconclusive: 12.4 µM [inhibitor, partial curve]	–
CCNC(=O)N1CC(Oc2ccc(-c3nc(-c4ccccc4)no3)cc2)C1	inconclusive: 5.56 µM [inhibitor, partial curve]	–
CCOc1cccc(CNC(=O)C2CCN(C(=O)c3ncn4c3COC(c3ccccc3)C4)CC2)c1 (centres undefined)	inconclusive: 7.85 µM [inhibitor, partial curve]	–
COc1ccc(OCC(=O)Nc2nc(-c3ccc(Br)cc3)ns2)cc1	–	inactive: -14.5%
CC(=O)N[C@@H]1C=C[C@@H](c2c(C)nn(-c3ccc(C(C)(C)C)cc3)c2C)C1	inconclusive: 18 µM [inhibitor, partial curve]	–
CC(C)n1cnnc1CN(C)c1nc(N)nc2nc[nH]c12	–	inactive: -2.8%
O=C(O)c1cccc(-c2noc(-c3cc([N+](=O)[O-])cc([N+](=O)[O-])c3)n2)c1	active: 3.13 µM	–
CCOCC(=O)N1c2ccccc2CC1c1noc(C(C)C)n1 (centres undefined)	inconclusive: 12.4 µM [inhibitor, partial curve]	–
COc1cccc(-c2cc(C(=O)NCc3nc(-c4ccccc4)n[nH]3)[nH]n2)c1	inconclusive: 11.1 µM [inhibitor, partial curve, poor fit]	–
COc1cccc(CN2CCc3nc(Nc4ccc5c(c4)OCCO5)ncc3C2)c1	inconclusive: 11.1 µM [inhibitor, partial curve]	–
Cc1ccc(-c2cccc(COc3cnc4c(ccn4CC(=O)O)c3)c2)cc1	inconclusive: 8.05 µM [inhibitor, partial curve]	–
CSCC(=O)Nc1nn(-c2ccc(F)cc2)c2cccc(N3CCOCC3)c12	inconclusive: 9.89 µM [inhibitor, partial curve]	–
c1ccc(COc2ccc(CN3CCSCC3)cc2)nc1	inconclusive: 12.4 µM [inhibitor, partial curve]	–
COc1ccc(CC(=O)Nc2ccc(-c3nc4ccccc4s3)cc2Cl)cc1OC	–	inactive: -19.2%
Cc1cccc(CNC(=O)Cc2csc3ccccc23)c1	–	inactive: -17.3%
CCOc1cc2sc(N3CCC(C(=O)Nc4ccc(C(C)C)cc4)CC3)nc2cc1Br	active: 7 µM	–
